pIC50: −log10 of the molar value.
Test system: 786-O renal cell carcinoma cells
Assay: 786-O Xenograft Study (in vivo efficacy)
Parameters: species or system SCID/Biege mice
Conditions: 200 mg/kg BID oral gavage, after 20 days of dosing, n=8
Description: Example 85: In Vivo Efficacy Study
Efficacy studies for Compounds 79, 116, 119 and 183: All compounds were formulated with 10% absolute ethanol, 30% PEG400, 60% water containing 0.5% methyl cellulose and 0.5% Tween80®. About 5×10^6 786-O renal cell carcinoma cells (ATCC® CRL-1932™) in PBS and Matrigel (1:1 in volume) were inoculated subcutaneously in the right flank of SCID/Biege mice at 6-7 weeks of age for tumor development. When the xenografts reached about 200 mm^3 in size, the tumor-bearing mice were randomly grouped into six groups (n=8) and treated by oral gavage with Compound 79, Compound 116, Compound 119, Compound 183 (each at 200 mg/kg BID), and vehicle (BID) for 20 days. Tumor sizes were measured twice weekly in two dimensions using a caliper and the volume expressed in mm^3 using the formula V=0.5×a×b^2, wherein a and b were the long and short diameters of the tumor, respectively.

**Q.** How did the “Tumor Size (mm^3) Mean ± SEM” value turn out when `CCn1c(C(O)(c2ccccc2)c2ccccc2)nc2ccc(C(=O)NC[C@@H](C)O)cc21` [Compound 79, (R)-1-ethyl-2-(hydroxydiphenylmethyl)-N-(2-hydroxypropyl)-1H-benzo[d]imidazole-6-carboxamide] was run?
**A.** 281.1 ± 45.2 mm^3

**Q.** For `C[C@@H](O)CNC(=O)c1ccc2nc(C(O)(c3ccccc3)c3ccccc3)n(C)c2c1` [Compound 183], which “Tumor Size (mm^3) Mean ± SEM” value is on record?
**A.** 668.9 ± 62.5 mm^3

**Q.** For `C[C@@H](O)CNC(=O)c1ccc2nc(C(O)(c3ccccc3F)c3ccccc3F)n(C)c2c1` [Compound 116], which “Tumor Size (mm^3) Mean ± SEM” value is on record?
**A.** 597.5 ± 72.5 mm^3

**Q.** How did the “Tumor Size (mm^3) Mean ± SEM” value turn out when `CCn1c(C(O)(c2ccccc2F)c2ccccc2F)nc2ccc(C(=O)NC[C@@H](C)O)cc21` [Compound 119] was run?
**A.** 475.2 ± 60.7 mm^3

Target: Human ACSS2 (Homo sapiens, UniProt Q9NR19)
UniProt Q9NR19, sequence (Q9NR19 whole entry): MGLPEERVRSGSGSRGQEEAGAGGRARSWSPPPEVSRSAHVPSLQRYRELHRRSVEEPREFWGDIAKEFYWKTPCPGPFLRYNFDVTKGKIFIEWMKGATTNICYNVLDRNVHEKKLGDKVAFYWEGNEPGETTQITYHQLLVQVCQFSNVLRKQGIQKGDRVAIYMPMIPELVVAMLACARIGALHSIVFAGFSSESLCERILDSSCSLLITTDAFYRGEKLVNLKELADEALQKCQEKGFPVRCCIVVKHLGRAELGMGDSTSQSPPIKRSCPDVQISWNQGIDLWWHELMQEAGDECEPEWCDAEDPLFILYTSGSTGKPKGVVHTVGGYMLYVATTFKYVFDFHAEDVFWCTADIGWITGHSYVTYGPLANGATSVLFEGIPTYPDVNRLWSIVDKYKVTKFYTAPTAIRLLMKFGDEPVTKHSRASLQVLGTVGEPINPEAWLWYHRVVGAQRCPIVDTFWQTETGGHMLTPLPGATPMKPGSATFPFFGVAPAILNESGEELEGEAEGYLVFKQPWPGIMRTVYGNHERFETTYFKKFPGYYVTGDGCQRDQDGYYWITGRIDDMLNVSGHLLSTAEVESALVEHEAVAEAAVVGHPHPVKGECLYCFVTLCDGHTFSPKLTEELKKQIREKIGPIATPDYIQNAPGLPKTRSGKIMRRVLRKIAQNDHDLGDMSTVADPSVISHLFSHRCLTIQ
Assay: biochemical
Conditions: not given

**Q.** How did the pIC50 turn out when `CCn1c(C(O)(c2ccccc2)c2ccccc2)nc2ccc(C(=O)NC[C@@H](C)O)cc21` [Compound 79, (R)-1-ethyl-2-(hydroxydiphenylmethyl)-N-(2-hydroxypropyl)-1H-benzo[d]imidazole-6-carboxamide] was run?
**A.** > 7.30

**Q.** With `CCc1c[nH]c(-c2ccc3nc(C(O)(c4ccccc4)c4ccccc4)n(CC)c3c2)n1` [Compound 300, (1-ethyl-6-(4-ethyl-1H-imidazol-2-yl)-1H-benzo[d]imidazol-2-yl)diphenylmethanol] as the molecule, how does the pIC50 read?
**A.** 6.60 to 7.30

Reference: US10040767B2, “Benzimidazole derivatives and uses thereof” (Peloton Therapeutics, Inc., priority 2014, dated 2018)
